# Experimental data taken from the supplement of paper PMC9446081.
# In all, about 39,000 compounds went through this assay and about 220 (0.56%) showed activity. This is one part of the list.
# Tested on: Escherichia coli K-12 BW25113
# Experiment: relative growth (OD600 normalised to plate interquartile mean) (fraction); higher = less growth inhibition, active = 0.2 or less
# Settings: 50 µM; LB; incubation time: overnight (16-24 h)
# 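Further: static incubation at 37 °C against the wild-type strain, values averaged over two biological replicates.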
row,SMILES,relative growth
1,CC(C)NC(=O)N(C)C[C@@H]1OCCCC[C@@H](C)Oc2ccc(NC(=O)C3CCCCC3)cc2C(=O)N([C@@H](C)CO)C[C@@H]1C,inactive: 0.998
2,COc1ccc(S(=O)(=O)Nc2ccc3c(c2)C(=O)N([C@H](C)CO)C[C@@H](C)[C@H](CN(C)C(=O)Nc2c(C)noc2C)OCCCC[C@@H](C)O3)cc1,inactive: 0.998
3,CC1(C)O[C@@]2(C)CC[C@@H]1C[C@@H]2O[C@H]1O[C@@H](CO)[C@@H](O)[C@@H](O)[C@@H]1O,inactive: 0.999
4,C[C@H]1CN([C@@H](C)CO)C(=O)c2cccc(NS(C)(=O)=O)c2O[C@H]1CN(C)S(C)(=O)=O,inactive: 0.981
5,C[C@@H]1CN([C@H](C)CO)C(=O)Cc2cc(NS(=O)(=O)c3cn(C)cn3)ccc2O[C@H]1CN(C)Cc1ccc2c(c1)OCO2,inactive: 1.01
6,C[C@@H]1CN([C@H](C)CO)S(=O)(=O)c2ccc(C#CC(C)(C)O)cc2O[C@@H]1CN(C)Cc1ccncc1,inactive: 0.987
7,O=C(O)C[C@@H]1CC[C@@H]2[C@H](COC[C@H](O)CN2S(=O)(=O)c2ccc(F)cc2)O1,inactive: 1
8,C[C@@H]1CN([C@@H](C)CO)C(=O)c2cccc(NC(=O)Nc3ccc(F)cc3)c2O[C@@H]1CN(C)Cc1ccc(Cl)c(Cl)c1,inactive: 1.01
9,COc1ccc(NC(=O)Nc2ccc3c(c2)C(=O)N([C@@H](C)CO)C[C@H](C)[C@@H](CN(C)C(=O)CCC(F)(F)F)OCCCC[C@@H](C)O3)cc1,inactive: 1.03
10,C[C@H](CO)N1C[C@H](C)[C@@H](CN(C)CC2CCCCC2)Oc2ccc(NC(=O)Nc3ccc(F)cc3)cc2CC1=O,inactive: 0.973
11,Cc1noc(C)c1NC(=O)Nc1ccc2c(c1)C(=O)N([C@@H](C)CO)C[C@@H](C)[C@@H](CN(C)C(=O)C1CCCCC1)OCCCC[C@H](C)O2,inactive: 0.991
12,COc1ccc(S(=O)(=O)N(C)C[C@H]2Oc3c(NS(=O)(=O)c4cccs4)cccc3C(=O)N([C@@H](C)CO)C[C@@H]2C)cc1,inactive: 1.01
13,C[C@@H]1CN([C@H](C)CO)C(=O)c2cccc(NC(=O)c3ccc(-c4nccs4)cc3)c2O[C@H]1CN(C)S(=O)(=O)c1ccc(Cl)cc1,inactive: 1.02
14,CC(=O)N1C[C@@H]2C(=O)N(C)C3(CCN(S(=O)(=O)Cc4ccccc4)CC3)[C@H]2C1,inactive: 0.958
15,C[C@H]1CCCCO[C@H](CN(C)C(=O)C2CCCCC2)[C@@H](C)CN([C@@H](C)CO)C(=O)c2cc(NC(=O)Nc3ccc(C(F)(F)F)cc3)ccc2O1,inactive: 1.06
16,C[C@@H]1CCCCO[C@H](CN(C)C(=O)Nc2ccccc2)[C@@H](C)CN([C@H](C)CO)C(=O)c2cc(NC(=O)Nc3ccc4c(c3)OCO4)ccc2O1,inactive: 1.01
17,COc1ccc(NC(=O)Nc2ccc3c(c2)C(=O)N([C@@H](C)CO)C[C@H](C)[C@@H](CN(C)C(=O)Nc2cccc4ccccc24)O3)cc1,inactive: 1
18,COc1ccc(S(=O)(=O)N(C)C[C@@H]2Oc3ncc(-c4cccc(F)c4)cc3C(=O)N([C@H](C)CO)C[C@@H]2C)cc1,inactive: 1.01
19,CCCNC(=O)Nc1ccc2c(c1)OC[C@@H](C)N(Cc1ccc(-c3ccccn3)cc1)C[C@@H](C)[C@H](OC)CN(C)C2=O,inactive: 1.03

row,SMILES,relative growth
1,C=CCn1c(=O)c2cnc(Nc3ccc(N4CCN(C)CC4)cc3)nc2n1-c1cccc(C(C)(C)O)n1,inactive: 0.979
2,CC(C)Cn1c(=O)[nH]c2c1c(=O)n(C)c(=O)n2C,inactive: 0.94
3,O=C(C[C@H]1CC[C@@H]2[C@H](COC[C@@H](O)CN2C(=O)c2ccccc2F)O1)N1CCN(c2ccccc2)CC1,inactive: 1.01
4,C[C@@H]1CN([C@H](C)CO)C(=O)c2c(c3ccccc3n2C)-c2ccccc2CO[C@H]1CN(C)Cc1cccc(C(=O)O)c1,inactive: 0.994
5,COCCCNC(=O)[C@@]1(C)c2ccccc2C(=O)N(Cc2cc(F)cc(C(F)(F)F)c2)[C@H]1c1ccc(CO)cc1,inactive: 0.986
6,C[C@@H]1CN([C@H](C)CO)C(=O)Cc2cc(NC(=O)Nc3ccc(F)cc3)ccc2O[C@H]1CN(C)Cc1ccc(C(=O)Nc2ccccc2N)cc1,inactive: 1.03
7,COc1ccc(NC(=O)Nc2ccc3c(c2)CC(=O)N([C@H](C)CO)C[C@H](C)[C@H](CN(C)Cc2ccc(C(=O)Nc4ccccc4N)cc2)O3)cc1,inactive: 1.01
8,COc1cccc(C#Cc2cnc3c(c2)C(=O)N([C@H](C)CO)C[C@H](C)[C@@H](CN(C)C(=O)C2CCOCC2)O3)c1,inactive: 0.944
9,O=C(C[C@@H]1C[C@H]2c3cc(NC(=O)NC4CCCC4)ccc3O[C@H]2[C@@H](CO)O1)NCc1ccc(-c2ccccc2)cc1,inactive: 1
10,Cc1cc(C(=O)Nc2cccc3c2O[C@H](CN(C)C(=O)Nc2c(C)noc2C)[C@H](C)CN([C@@H](C)CO)C3=O)n(C)n1,inactive: 1.02
11,Cn1ncc2c1CCCC2=O,inactive: 0.985
12,O=C(Nc1cccc2ccccc12)c1ccc(C(F)(F)F)cc1,inactive: 0.975
13,CCCC#Cc1ccc2c(c1)O[C@H](CN(C)S(=O)(=O)c1cccc(F)c1)[C@@H](C)CN([C@H](C)CO)S2(=O)=O,inactive: 1.03
14,C[C@@H]1CN([C@H](C)CO)C(=O)c2cc(NC(=O)CCCN(C)C)ccc2O[C@H]1CN(C)C(=O)NC1CCCCC1,inactive: 0.99
15,C[C@H](CO)N1C[C@H](C)[C@@H](CN(C)C(=O)Nc2ccc3c(c2)OCO3)Oc2ccc(NS(C)(=O)=O)cc2C1=O,inactive: 0.979
16,C[C@H](CO)N1C[C@H](C)[C@@H](CN(C)Cc2ccc(C(=O)O)cc2)Oc2ccc(NC(=O)CCN3CCOCC3)cc2C1=O,inactive: 0.998
17,[Fe+3].CC/1=C(CCC(=O)O)/C/2=C/c3[nH]c(c(c3CCC(=O)O)C)/C=C/3\N=C(/C=C/4\N=C(\C=C1/N2)C(=C4C)C=C)C(=C3C)C=C,inactive: 0.828
18,Cc1noc(C)c1S(=O)(=O)Nc1ccc2c(c1)C(=O)N([C@H](C)CO)C[C@H](C)[C@@H](CN(C)Cc1ccc3c(c1)OCO3)O2,inactive: 0.989
